The list shows a part of the results. Single values are uncertain, as repeats are few or missing.
Test system: Mast2 alternative exon (endogenous)
Experiment: delta PSI of alternative exon relative to 0.4% DMSO control (RT-PCR) (percentage points); higher = more exon inclusion
Details: concentration: not stated (optimised per compound); Neuro-2a
Protocol: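 Reads PSI of the Mef2d reporter microexon and of endogenous mouse neural alternative exons. dPSI is relative to the 0.4% DMSO control, single replicate.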
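Also: exons read include endogenous Mef2d, Mast2, Ergic3 and Trappc9 microexons plus the longer neural-regulated Zdhhc20, Mgrn1 and Asph cassette exons, alongside the reporter microexon.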

Compound | delta PSI of alternative exon
Cn1ncc(C(=O)Nc2ccc(Cl)c(Cl)c2)c1[N+](=O)[O-] | 1.65
Cc1ccc(S(=O)(=O)Nc2ccc3ncccc3c2)cc1 | 24.2
N[C@@H](CSC(c1ccccc1)(c1ccccc1)c1ccccc1)C(=O)O [S-Trityl-L-cysteine] | -11.6
COc1cc(/C=C/C(=O)N2CCC=CC2=O)cc(OC)c1OC [Piperlongumine] | -8.38
COc1cc(OC)c(/C=C2/C(=O)Nc3ccccc32)c(OC)c1 | -6.78
COc1ccc(C=C2CCCc3ccccc3C2=O)cc1 | -1.13
Cc1onc(-c2ccccc2)c1C(=O)Nc1c(C(C)(C)C)nn(C)c1C(C)(C)C | 1.3
Nc1nc(=S)c2ncn([C@@H]3O[C@H](CO)[C@@H](O)[C@H]3O)c2[nH]1 [Thioguanosine] | -30.5
N#Cc1c(-c2cccs2)oc(-n2cccc2)c1-c1cc(Br)cs1 | 2.52
S=C(NN=Cc1ccccn1)NC1CC2C=CC1C2 (stereo not given) | 0.946
O=C(C=Cc1cc([N+](=O)[O-])ccc1Sc1ccc(C(F)(F)F)cn1)Nc1ccccc1 | 1.39
Cc1[nH]c2ccccc2c1CCNCc1ccc(/C=C/C(=O)NO)cc1 [Panobinostat] | 15.4
CC1=C(/C=C/C(C)=C/C=C/C(C)=C/C(=O)Nc2ccc(O)cc2)C(C)(C)CCC1 [Fenretinide] | 13
Nc1ccc(S(=O)(=O)Nc2cccc(C(F)(F)F)c2)cc1 | 3.84
COc1ccc(C(=O)C=C(C(=O)c2ccccc2)c2ccccc2)cc1CN1CCOCC1 | -5.17
c1ccc(C2=Nc3ccccc3NC(c3ccccc3)C2)cc1 (stereo not given) | 1.34
O=C(C=c1[nH]c(=O)c(=Cc2ccccc2O)s1)c1cccs1 | -8.36
CC1(c2ccc([N+](=O)[O-])cc2)NN=C(c2ccccc2)S1 (stereo not given) | 3.55
C=CCn1c(N)c(C(=O)NN=Cc2cccs2)sc1=S | 0.308
O=C(Nc1ccc(-n2nc(C(F)(F)F)cc2-c2cccs2)cc1)c1cccs1 | 4.2

Compound | delta PSI of alternative exon
N#CC1(C#N)C(c2ccc(Br)s2)C(C(=O)c2ccccc2)N2c3ccccc3C=CC21 (stereo not given) | -0.914
Cc1cc(C(=O)NOCCO)c(Nc2ccc(I)cc2F)n(C)c1=O | 23.6
CC(C)(C)c1ccc2cc(C#N)c(C#N)cc2c1 | -8.48
CNC(=S)N/N=C/c1ccccc1O | 9.91
Cc1onc(-c2c(Cl)cccc2Cl)c1C(=O)SCC(=O)Nc1ccc(Cl)cc1 | -2.25
O=C(CCCCCN1C(=O)c2cccc3cccc(c23)C1=O)NO [Scriptaid] | 8.41
O=C(CCCCCCC(=O)Nc1ccccc1)NO [Vorinostat] | 17.9
CCCCc1nc2cc(/C=C/C(=O)NO)ccc2n1CCN(CC)CC | 13.7
NC(=NOC(=O)c1c(F)cccc1Cl)c1ccc([N+](=O)[O-])o1 | -13.3
O=S(=O)(N/N=C/c1cc(Cl)cc(Cl)c1O)c1ccc(Cl)cc1 | 16.7
CC(=O)Nc1ccc([C@H](C)C(=O)Nc2ncc(C(C)C)s2)cc1 | -17.9
C(=NNc1ccc2ccccc2n1)c1ccccn1 | -0.196
Oc1nc2ccccc2nc1-c1c[nH]c2ccccc12 | 3.67
CC(/C=C/C(=O)NO)=C\[C@@H](C)C(=O)c1ccc(N(C)C)cc1 [Trichostatin A] | -6.41
N#Cc1c(O)nsc1Nc1ccc(Cl)cc1 | -2.02
CC(=O)c1sc(-c2ccccc2)cc1NS(=O)(=O)c1ccc(C)c(Cl)c1 | 1.41
CN(C)S(=O)(=O)c1ccc2c(c1)/C(=C/c1cc3c([nH]1)CCCC3)C(=O)N2 | 4.68
O=[N+]([O-])c1ccc(N2CCCN(C(=S)Nc3ccc(Cl)cc3Cl)CC2)nc1 | 6.72
Cc1onc(-c2c(Cl)cccc2Cl)c1C(=O)SCC(=O)Nc1ccc(F)cc1 | -7.23
CCN1C(=CC(=S)Nc2ccccc2)Sc2ccccc21 | 4.31
